# Data taken from article PMC4336329 (PLoS ONE, 2015).
# Screen size: about 310,000 compounds; about 14,000 (4.5%) showed an effect of 50% or more. The effect is printed as a negative number. This is one part of the list.
# Biological target: human ether-à-go-go-related gene (hERG) potassium channel (human, UniProt Q12809)
# Experiment: primary screen, population patch clamp on CHO cells stably expressing hERG
# 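Further: peak tail current of the secondary pulse compared with the same well before compound.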
# human ether-à-go-go-related gene (hERG) potassium channel, sequence (Q12809 whole entry, looked up): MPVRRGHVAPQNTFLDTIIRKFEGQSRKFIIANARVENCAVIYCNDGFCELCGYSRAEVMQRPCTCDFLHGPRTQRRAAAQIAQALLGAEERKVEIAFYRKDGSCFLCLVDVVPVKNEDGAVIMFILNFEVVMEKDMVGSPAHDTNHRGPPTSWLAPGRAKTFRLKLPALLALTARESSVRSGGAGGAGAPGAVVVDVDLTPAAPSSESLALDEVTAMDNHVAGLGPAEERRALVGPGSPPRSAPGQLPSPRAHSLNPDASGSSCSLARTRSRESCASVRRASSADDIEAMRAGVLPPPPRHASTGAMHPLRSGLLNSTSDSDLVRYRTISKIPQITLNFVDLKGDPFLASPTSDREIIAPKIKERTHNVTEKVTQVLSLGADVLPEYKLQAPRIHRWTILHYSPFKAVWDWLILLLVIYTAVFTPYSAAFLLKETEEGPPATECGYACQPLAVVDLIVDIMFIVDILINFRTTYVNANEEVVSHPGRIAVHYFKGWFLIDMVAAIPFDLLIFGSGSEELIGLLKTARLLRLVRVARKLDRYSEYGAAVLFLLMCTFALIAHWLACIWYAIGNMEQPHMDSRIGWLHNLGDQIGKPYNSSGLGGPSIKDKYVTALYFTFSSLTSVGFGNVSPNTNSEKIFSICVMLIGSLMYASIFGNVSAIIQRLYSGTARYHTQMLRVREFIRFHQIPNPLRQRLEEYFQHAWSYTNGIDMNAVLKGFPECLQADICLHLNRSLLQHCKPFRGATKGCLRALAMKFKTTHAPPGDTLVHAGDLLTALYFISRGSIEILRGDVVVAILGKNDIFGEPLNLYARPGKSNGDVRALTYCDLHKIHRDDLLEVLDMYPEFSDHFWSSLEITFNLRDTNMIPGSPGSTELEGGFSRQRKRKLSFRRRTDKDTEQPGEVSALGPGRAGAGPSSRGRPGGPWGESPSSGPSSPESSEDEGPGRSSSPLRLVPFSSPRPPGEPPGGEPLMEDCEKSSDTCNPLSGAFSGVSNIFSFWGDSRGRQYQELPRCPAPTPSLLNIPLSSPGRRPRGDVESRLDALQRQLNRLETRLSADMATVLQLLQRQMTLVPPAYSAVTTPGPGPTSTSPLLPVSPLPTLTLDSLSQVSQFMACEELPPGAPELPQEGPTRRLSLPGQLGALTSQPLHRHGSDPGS
row,Structure (SMILES),"hERG current change (%, negative = inhibition) at 10uM [%]"
1,O=C(COC(=O)CN1C(=O)NC2(CCCC2)C1=O)Nc1ccc(C(F)(F)F)cc1[N+](=O)[O-],-0.173
2,Cl.OCCNCCNCc1ccc(-c2ccccc2)cc1,-5.08
3,CN(C)c1nc(C(=O)OCCO)nc(N(C)C)n1,-1.98
4,Cc1cc(Br)c(NC(=O)c2c(-c3c(Cl)cccc3Cl)noc2C)c(Br)c1,9.94
5,CN(C)c1ccc(N2C(=O)CC(Nc3ccc(N4CCOCC4)cc3)C2=O)cc1 (stereo not drawn),-4.02
6,CCOc1ccc(N(CC(=O)Nc2cccc(C)c2)S(C)(=O)=O)cc1,-0.0101
7,COc1cc(CNC(=O)CCCCCCC(C)C)ccc1O,-16.3
8,O=c1c2ccccc2nc(N2CCCC2)n1-c1ccccc1,10.7
9,CC(C)C[C@H](NC(=O)N1CCn2c1nc1ccccc12)C(=O)NCc1ccccc1,-5.34
10,CCSc1nnc(NC(=O)C2CC2c2ccccc2)s1 (stereo not drawn),10.6
11,CCCn1c(-c2cccnc2Cl)nc2cc(Cl)c(Cl)cc21,-28.1
12,COc1ccc(-c2cnc3c(c2)CCC3(C#N)C#N)cc1,-34.4
13,CCCCn1c(N)c(N(CCOC)C(=O)CCCc2cccs2)c(=O)[nH]c1=O,-11.5
14,COc1cc(COCC(O)CN2CCOCC2)cc(OC)c1OC.Cl (stereo not drawn),-0.365
15,O=C1Nc2ccccc2C1Cc1ccccc1 (stereo not drawn),-6.97
16,COc1ccc(CN2CCN(c3ccc(F)cc3)CC2)c(OC)c1OC,-70.2
17,O=C(CS(=O)(=O)Cc1ccccc1)N1CCN(c2ccccc2F)CC1,-1.2
18,CN(C)CCCN(C(=O)CCc1ccccc1)c1nc2ccc(Cl)cc2s1.Cl,-24.4
19,CCCCC(O)(c1ccc(CC)cc1)C(CN1CCOCC1)c1ccccc1.Cl (stereo not drawn),0.072

row,Structure (SMILES),"hERG current change (%, negative = inhibition) at 10uM [%]"
1,CCC(=O)NNC(=O)CCC(=O)Nc1cccc(Cl)c1C,12.3
2,CC(C)C(=O)Nc1ccccc1N1CCN(S(C)(=O)=O)CC1,-4.44
3,CCOC(=O)N1CCN(S(=O)(=O)c2ccc(F)c(C(=O)Nc3cccc(Cl)c3C)c2)CC1,-3.81
4,CCN(CC(=O)NCc1cccs1)C(=O)c1ccc(S(=O)(=O)Nc2ccccc2C)cc1,-24.3
5,CC(=O)CCN1CCOCC1,0.857
6,O=C(C1CCCN(c2nnc(-n3cccc3)s2)C1)N1CCN(c2ccccc2)CC1 (stereo not drawn),-47
7,O=C(CCn1c(=O)sc2ccccc21)NCc1ccc2c(c1)OCO2,20.6
8,CC12CCC(C(=O)NC3CCCCC3)([C@H](Br)C1=O)C2(C)C (stereo partly drawn),10.6
9,Cc1ccccc1C(=O)O/N=C(\N)c1cccc([N+](=O)[O-])c1,-13.2
10,Cc1ccc(C)c(NC(=O)C2CCCN2S(=O)(=O)c2ccc3c(c2)n(C)c(=O)c(=O)n3C)c1 (stereo not drawn),-26.8
11,CCCn1nc(NS(=O)(=O)c2cccc3nonc23)c2cc3ccccc3nc21,4.72
12,CCc1nn2c(=O)c(S(=O)(=O)Nc3cccc(F)c3)c(C)nc2s1,1.42
13,COc1ccc(CNC(=O)C(NS(=O)(=O)c2ccc3c(c2)CCCN3C(C)=O)C(C)C)cc1 (stereo not drawn),-8.3
14,COc1ccccc1/C=C1\SC(=S)N(CC(=O)Nc2nnc(C)s2)C1=O,13.3
15,CN1CCN(C(=O)c2cc(Oc3c(F)c(F)c(F)c(F)c3F)cc(C(=O)N3CCN(C)CC3)c2)CC1,10.8
16,CCCCNC(=O)Nc1nc(SCC(=O)OCC)n[nH]1,4.64
17,O=C(CSc1nnc2scc(-c3ccccc3)n12)NCc1ccc2c(c1)OCO2,-21.1
18,CCc1ccc(S(=O)(=O)NCc2ccc(N3CCN(C)CC3)cc2)cc1,0.364
19,Cc1oc(-c2ccc(F)cc2F)nc1CN1C[C@@H]2C[C@@H](C1)c1cccc(=O)n1C2,-74.4

row,Structure (SMILES),"hERG current change (%, negative = inhibition) at 10uM [%]"
1,O=C1CCN(Cc2ccccc2)S(=O)(=O)c2ccc(C(F)(F)F)cc21,2.95
2,CC(=O)c1cccc(NC(=O)Cc2coc3cc4c(cc23)CCC4)c1,3.83
3,CCn1c(NC(=O)c2cccs2)c(-c2cccs2)c(=O)c2ccccc21,2.49
4,Cn1cccc1C(=O)OCc1cc(-c2ccco2)on1,6.76
5,CC(=O)c1ccc(OCc2cc(C(=O)N(C)Cc3ccon3)no2)cc1,5.57
6,Cc1ccccc1C(=O)NCC(=O)Nc1ccccc1C(F)(F)F,22.7
7,COC(=O)c1sccc1NC(=O)CCC1CCCCC1,12
8,CCN(C(=O)COC(=O)COc1ccc(Cl)c(C)c1)C1CCS(=O)(=O)C1 (stereo not drawn),-45.6
9,CCCCCn1c(CNC(=O)COC)nc2ccccc21,-10.4
10,COc1ccccc1CNC(=O)c1cc(C)nn1-c1ccccc1,1.87
11,N#Cc1ccc(OCC(=O)Nc2nc(-c3ccncc3)cs2)cc1,1.73
12,COc1ccccc1N1CCN(C(=O)CCc2ccc(S(=O)(=O)NCC(C)C)cc2)CC1,-5.22
13,C=CCSc1nnc(NC(=O)CCNC(=O)c2ccco2)s1,-0.768
14,O=C(Nc1ccc(F)cc1F)N1CCCN(c2ccc([N+](=O)[O-])cn2)CC1,-50.2
15,Cc1ccc(CN(C)C(=O)c2ccccc2Oc2ccccc2)o1,-21.7
16,Cc1cc([N+](=O)[O-])ccc1N,-0.0947
17,NC(=O)c1ccc(Cc2ncc(C(F)(F)F)cc2Cl)s1,6.97
18,CCOc1ccc(S(=O)(=O)N(CC(=O)NCC2CCCO2)c2ccc(F)cc2)cc1 (stereo not drawn),-23.7
19,O=C(CCNC(=O)c1ccccc1Cl)NNC(=O)c1ccccc1O,9.43
